Laboratory results: the supplement of paper PMC6089552
Screen size: about 3,200 compounds; about 300 (9.4%) showed activity. This is a selection; strong and weak results do not stand in their true shares.

Tested on: A673/TR/shEF
Assay: cell viability (LOESS-normalised, relative to median of negative controls) (log2 ratio); higher = more viable cells (less compound effect), active = hit call of the paper (over 3 MAD below the median)
Conditions: treatment time: 72 h
In short: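 A673/TR/shEF Ewing sarcoma cells were plated at 1,500 per well in 384-well plates and cultured with or without doxycycline, added 24 h before compounds, to induce EWS-FLI1 shRNA knockdown. Library compounds at two or more concentrations, alongside DMSO controls, were applied for three days. Cell viability was measured by CellTiter-Glo luminescence on an Envision reader. Readings were LOESS-corrected per plate, divided by the median of negative controls and log2-transformed, and hits were wells lying at least three median absolute deviations from the median of all screened wells.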

[1] = 0.25 µM, library screen: screen1, EWS-FLI1 expression: high (no doxycycline)
[2] = 0.25 µM, library screen: screen1, EWS-FLI1 expression: low (doxycycline-induced shRNA knockdown)
[3] = 2.5 µM, library screen: screen1, EWS-FLI1 expression: high (no doxycycline)
[4] = 2.5 µM, library screen: screen1, EWS-FLI1 expression: low (doxycycline-induced shRNA knockdown)
[5] = 0.103 µM, library screen: screen3, EWS-FLI1 expression: high (no doxycycline)
[6] = 0.103 µM, library screen: screen3, EWS-FLI1 expression: low (doxycycline-induced shRNA knockdown)
[7] = 0.308 µM, library screen: screen3, EWS-FLI1 expression: high (no doxycycline)
[8] = 0.308 µM, library screen: screen3, EWS-FLI1 expression: low (doxycycline-induced shRNA knockdown)
[9] = 0.926 µM, library screen: screen3, EWS-FLI1 expression: high (no doxycycline)
[10] = 0.926 µM, library screen: screen3, EWS-FLI1 expression: low (doxycycline-induced shRNA knockdown)
[11] = 2.8 µM, library screen: screen3, EWS-FLI1 expression: high (no doxycycline)
[12] = 2.8 µM, library screen: screen3, EWS-FLI1 expression: low (doxycycline-induced shRNA knockdown)
[13] = 8.3 µM, library screen: screen3, EWS-FLI1 expression: high (no doxycycline)
[14] = 8.3 µM, library screen: screen3, EWS-FLI1 expression: low (doxycycline-induced shRNA knockdown)
[15] = 25 µM, library screen: screen3, EWS-FLI1 expression: high (no doxycycline)
[16] = 25 µM, library screen: screen3, EWS-FLI1 expression: low (doxycycline-induced shRNA knockdown)
[17] = 0.25 µM, library screen: screen2, EWS-FLI1 expression: high (no doxycycline)
[18] = 0.25 µM, library screen: screen2, EWS-FLI1 expression: low (doxycycline-induced shRNA knockdown)
[19] = 2.5 µM, library screen: screen2, EWS-FLI1 expression: high (no doxycycline)
[20] = 2.5 µM, library screen: screen2, EWS-FLI1 expression: low (doxycycline-induced shRNA knockdown)

Measured: cell viability (log2)

C[N+](C)(C)CC(O)CC(=O)O (stereo unspecified)
inactive: [1] 0.0407 | [2] 0.0603 | [3] 0.141 | [4] 0.165

CC(C)C[C@H](NC(=O)[C@H](CCC(=O)O)NC(=O)CNC(=O)c1ccc(/C=C/C(=O)O)cc1)C(N)=O
active: 0.025 µM, library screen: screen1, EWS-FLI1 expression: high (no doxycycline) -0.138

C[C@]12CCC(=O)C=C1[C@@H]1C[C@@H]1[C@H]1[C@@H]3[C@@H]4C[C@@H]4[C@@]4(CCC(=O)O4)[C@@]3(C)CC[C@@H]12
inactive: [5] 0.0134 | [6] 0.0343 | [7] -0.0173 | [8] -0.016 | [9] 0.0958 | [10] 0.0477 | [11] -0.09 | [12] -0.0296 | [13] -0.0227 | [14] 0.0426 | [15] -0.00242 | [16] -0.0168

CC(=O)OC1CC[C@@]2(C)C(CC[C@]3(C)C2CCC2C4CC(C)(C)CCC4(C(=O)O)CC[C@]23C)C1(C)C (stereo partly specified)
inactive: [1] 0.0992 | [2] 0.055 | [3] 0.145 | [4] 0.119

Nc1ncnc2c1ncn2[C@@H]1O[C@H](COP(=O)(O)OP(=O)(O)OP(=O)(O)OP(=O)(O)OC[C@@H]2O[C@H](n3cnc4c(N)ncnc43)C(O)[C@@H]2O)[C@H](O)C1O (stereo partly specified)
inactive: [17] 0.242 | [18] 0.0165 | [19] 0.141 | [20] 0.101

COc1ccccc1N1CCN(CCN(C(=O)c2ccc(I)cc2)c2ccccn2)CC1
inactive: [17] 0.184 | [18] 0.0785 | [19] 0.0431 | [20] 0.0688

CC1=C(/C=C/C(C)=C/C=C/C(C)=C/CO)C(C)(C)CCC1
inactive: [1] 0.148 | [2] 0.0325 | [3] 0.156 | [4] -0.0113

C/C=C(/C(=C/C)c1ccc(O)cc1)c1ccc(O)cc1
inactive: [1] 0.152 | [2] 0.172 | [3] 0.133 | [4] 0.163

O=C(O)c1ccccc1OP(=O)(O)O
inactive: [1] -0.0123 | [2] 0.00401 | [3] 0.0889 | [4] 0.118

COC(=O)c1c(C)cc(OC(=O)c2c(C)cc(O)c(C=O)c2O)c(C)c1O
inactive: [1] 0.0446 | [2] 0.137 | [3] 0.0984 | [4] 0.0852

OC1(c2ccc(Cl)cc2)CCN(Cc2c[nH]c3ccccc23)CC1
inactive: [17] 0.116 | [18] 0.165 | [19] 0.0719 | [20] 0.0584

CCC(C)C(=O)c1c(O)c(C)c2oc3c(C)c(O)c(C(=O)C(C)CC)c(O)c3c2c1O (stereo unspecified)
active: [3] -0.592

CCCCCCCC/C=C/CCCCCCCC(=O)OC(CO)COC(=O)CCCCCCCCCCCCCCC (stereo unspecified)
inactive: [17] 0.242 | [18] 0.101 | [19] 0.231 | [20] 0.152

CC1(C)S[C@@H]2[C@H](NC(=O)[C@H](N)c3ccccc3)C(=O)N2[C@H]1C(=O)O
inactive: [1] 0.0882 | [2] 0.14 | [3] 0.142 | [4] 0.206

CCCc1occc(=O)c1C=CO
inactive: [1] -0.0143 | [2] 0.0143 | [3] 0.203 | [4] 0.0516

O=c1n(CCCN2CCN(c3cccc(Cl)c3)CC2)nc2ccccn12
inactive: [5] 0.0271 | [6] -0.0162 | [1] 0.0857 | [2] 0.143 | [17] 0.142 | [18] 0.118 | [7] 0.0692 | [8] 0.0478 | [9] -0.0642 | [10] 0.0142 | [3] 0.104 | [4] 0.163 | [19] 0.117 | [20] 0.0439 | [11] 0.0622 | [12] 0.0232 | [13] 0.00929 | [14] 0.0658 | [15] 0.0202 | [16] 0.0456

CC(C)(O)[C@@H]1CC[C@](C)([C@H]2[C@@H](O)C[C@@]3(C)[C@@H]4C[C@H](O[C@@H]5O[C@H](CO)[C@@H](O)[C@H](O)[C@H]5O)[C@H]5C(C)(C)[C@@H](O[C@@H]6OC[C@@H](O)[C@H](O)[C@H]6O)CC[C@@]56C[C@@]46CC[C@]23C)O1
inactive: [5] 0.0688 | [6] 0.0886 | [7] 0.0588 | [8] 0.038 | [9] 0.056 | [10] 0.105 | [11] 0.044 | [12] -0.00938 | [13] 0.0806 | [14] 0.0911 | [15] 0.0188 | [16] 0.0301

CCN(CC)CC(=O)Nc1c(C)cccc1C
inactive: [5] 0.148 | [6] 0.0138 | [1] 0.147 | [2] 0.00307 | [17] 0.111 | [18] 0.106 | [7] 0.0507 | [8] 0.127 | [9] 0.13 | [10] 0.0501 | [3] 0.157 | [4] 0.131 | [19] 0.0975 | [20] 0.0477 | [11] 0.00489 | [12] 0.0234 | [13] 0.0246 | [14] 0.018 | [16] 0.0253
active: [15] -0.278

CC(=O)OCC(=O)[C@@]12OC(C)(C)O[C@@H]1C[C@H]1[C@@H]3C[C@H](F)C4=CC(=O)C=C[C@]4(C)[C@@]3(F)[C@@H](O)C[C@@]12C
inactive: [5] -0.0365 | [6] 0.072 | [1] 0.0987 | [2] -0.355 | [7] 0.00897 | [8] 0.0601 | [9] -0.0158 | [10] 0.0416 | [3] 0.179 | [4] -0.443 | [11] 0.0272 | [12] 0.123 | [13] -0.0208 | [14] 0.152 | [15] 0.0544 | [16] 0.0922

c1ccc2c(CC3=NCCN3)cccc2c1
inactive: [5] 0.0858 | [6] 0.112 | [1] -0.0243 | [2] -0.00825 | [17] 0.00769 | [18] 0.103 | [7] 0.126 | [8] -0.000103 | [9] 0.0423 | [10] 0.0423 | [3] 0.143 | [4] 0.0655 | [19] 0.0414 | [20] 0.0816 | [11] 0.00847 | [12] 0.0518 | [13] -0.0245 | [14] 0.0776 | [15] 0.0649 | [16] 0.0516

COC(=O)C1=CO[C@@H](C)[C@H]2CN3CCc4c([nH]c5ccccc45)[C@@H]3C[C@H]12
inactive: [1] 0.116 | [2] 0.0192 | [3] 0.164 | [4] 0.0681

O=C(O)[C@@H]1C[C@H](C(=O)O)N1
inactive: [17] 0.144 | [18] 0.11 | [19] 0.17 | [20] 0.113

NC(=O)NCCC[C@H](N)C(=O)O
inactive: [1] 0.1 | [2] 0.0189 | [3] 0.199 | [4] 0.0391

COc1ccc(-c2coc3cc(OC(C)=O)cc(OC(C)=O)c3c2=O)cc1
inactive: [1] 0.0854 | [2] -0.00831 | [3] 0.156 | [4] 0.114

NC(N)=NC(=O)c1nc(Cl)c(N)nc1N
inactive: [5] 0.1 | [6] -0.00692 | [1] 0.092 | [2] 0.142 | [17] 0.0653 | [18] 0.188 | [7] 0.116 | [8] 0.0975 | [9] 0.0536 | [10] 0.066 | [3] 0.116 | [4] 0.199 | [19] 0.119 | [20] 0.111 | [11] 0.129 | [12] 0.0594 | [13] 0.0568 | [14] 0.0415 | [15] 0.0877 | [16] 0.0677

O=c1oc2c(O)c(O)cc3c(=O)oc4c(O)c(O)cc1c4c23
inactive: 0.025 µM, library screen: screen2, EWS-FLI1 expression: high (no doxycycline) 0.118 | 0.025 µM, library screen: screen2, EWS-FLI1 expression: low (doxycycline-induced shRNA knockdown) 0.022 | [1] 0.026 | [2] 0.00636 | [17] -0.0123 | [18] 0.0256 | [3] 0.0418 | [4] -0.000232 | [19] 0.167 | [20] 0.128 | 25 µM, library screen: screen2, EWS-FLI1 expression: high (no doxycycline) 0.149 | 25 µM, library screen: screen2, EWS-FLI1 expression: low (doxycycline-induced shRNA knockdown) 0.0448

CC(=O)CC(c1ccccc1)c1c(O)c2ccccc2oc1=O (stereo unspecified)
inactive: [1] 0.0115 | [2] 0.135 | [3] 0.146 | [4] 0.078

NS(=O)(=O)c1cc2c(cc1Cl)NC(C1CC3C=CC1C3)NS2(=O)=O (stereo unspecified)
inactive: [17] 0.131 | [18] 0.0709 | [19] 0.0922 | [20] 0.118

O=C1NS(=O)(=O)c2ccccc21
inactive: [1] 0.0666 | [2] -0.0216 | [3] 0.209 | [4] 0.00514

S=C(S)N1CCCC1
inactive: [17] 0.191 | [18] 0.0323 | [19] 0.234 | [20] 0.0843

c1coc(CNc2ncnc3nc[nH]c23)c1
inactive: [1] 0.0851 | [2] 0.0555 | [3] 0.116 | [4] 0.0571

CC1=C(C(=O)Nc2ccccc2Cl)C(c2ccc(O)cc2)NC(=S)N1 (stereo unspecified)
inactive: [1] 0.145 | [2] -0.0151 | [3] 0.191 | [4] -0.0985

O=C(Nc1cccc(C(=O)Nc2ccc(S(=O)(=O)O)c3cc(S(=O)(=O)O)cc(S(=O)(=O)O)c23)c1)Nc1cccc(C(=O)Nc2ccc(S(=O)(=O)O)c3cc(S(=O)(=O)O)cc(S(=O)(=O)O)c23)c1
inactive: [17] 0.11 | [18] 0.117 | [19] 0.167 | [20] 0.0855
